Reference: the RNAGym collection of RNA variant scans (doi:10.1093/nar/gkz1192)
The source gives no read counts; variants with many changes may rest on few reads.

B1: CPEB3 Ribozyme (parent)
chain: UAACAGGGGGCCACAGCAGAAGCGUUCACGUCGCAGCCCCUGUCAGAUUCUGGUGAAUCUGCGAAUUCUGCUGUAUAUCUC

Variants of: B1
Assay: self-cleavage, relative activity (ratio to wild type); higher = more cleavage; in vitro, sequencing
Outline: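 For each CPEB3 ribozyme variant, relative activity is its cleaved/total read fraction divided by the unmutated ribozyme's. Barcoded error-prone PCR libraries were transcribed by T7 RNA polymerase (5 hours, 37°C) and held in DNase I for 15 min before an EDTA stop, with cleavage occurring throughout. Template-switching reverse transcription and Illumina sequencing were used to read the RNAs. A 5-read minimum applied, and results are the mean of three batches.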
Variant G9C U25A G30A A35U U67A has a self-cleavage of 0.06.
Work on G9A G22A U26A A45U A56C yielded a self-cleavage of 0.06.
Work on G9A U41G A45G G61A U74C yielded a self-cleavage of 0.06.
G9U A28U U31A A45G U48C U51A U78C showed a self-cleavage of 0.03.
In the case of G9U C12A A56G C62G A65G, the self-cleavage is reported as 0.1.
Work on G9A C17U U31A U43G U58C A64U U80A yielded a self-cleavage of 0.04.
For G9A C34U A57G A75U, the self-cleavage was 0.06.
With G9C U31A U41C the self-cleavage was 0.08.
For G9U U26A A77U, the self-cleavage was 0.21.
With G9C U26C A35G A57G U60C the self-cleavage was 0.09.
With G9C A28U C34A U43C G70A U78C the self-cleavage was 0.04.
Variant G9C A21G U60A has a self-cleavage of 0.05.
G9U U49C A64G G73A A75U gave a self-cleavage of 0.04.
In the case of G9U A65G U74C U76C, the self-cleavage is reported as 0.07.
G9U A35U U49G A65G showed a self-cleavage of 0.05.
Variant G9A U60C U72C U80A has a self-cleavage of 0.35.
With G9A U31C C38A A45G A56G the self-cleavage was 0.16.
In the case of G10A A15G U25G U31C, the self-cleavage is reported as 0.27.
Work on G9C A15U A21U A64G yielded a self-cleavage of 0.16.
With G9U U49A U66C the self-cleavage was 0.05.
In the case of G9C G24A A35U U69C U72C, the self-cleavage is reported as 0.05.
In the case of G9U G36U U78C, the self-cleavage is reported as 0.07.
With G9A U26A C34G A35U U41A U60C the self-cleavage was 0.03.
In the case of G9A C14U C44U A64U, the self-cleavage is reported as 0.07.
Variant G9U C38U A64G U78C has a self-cleavage of 0.12.
Work on G9A U49C U60A yielded a self-cleavage of 0.05.
Work on G9A U69G U76C yielded a self-cleavage of 0.14.
With G9U U49C U76A the self-cleavage was 0.14.
For G9A G10A G30U U49G, the self-cleavage was 0.07.
G9A U31C C59U gave a self-cleavage of 0.07.
In the case of G9A U25C U43C U48C U69C U78G, the self-cleavage is reported as 0.04.
With G9U G42A U66C G70A U78C the self-cleavage was 0.05.
Variant G9U G73A C81U has a self-cleavage of 0.15.
In the case of G9C C12U A28G A56U U74C, the self-cleavage is reported as 0.04.
Variant G9C G10A U67C U72C A75G U80C has a self-cleavage of 0.08.
For G9C C40U U54A, the self-cleavage was 0.1.
With G10A A13G U54C U72C the self-cleavage was 0.06.
In the case of G9U A20C A21C A57G U58C U72A U78C, the self-cleavage is reported as 0.05.
With G10A A15G U26A G42A A64G the self-cleavage was 0.05.
Work on G9A C14U U67C yielded a self-cleavage of 0.12.
Variant G9A U25C U26A U49C has a self-cleavage of 0.04.
Variant G9C A13G A15G C23U A45G A47G A64G has a self-cleavage of 0.08.
Work on G10A A13U U26C U51C yielded a self-cleavage of 0.09.
Work on G9A U41C U43C yielded a self-cleavage of 0.19.
With G9C G24A U25C U49C the self-cleavage was 0.11.
Variant G9U U25C C59U has a self-cleavage of 0.06.
In the case of G9U A15G A56G U69C U80C, the self-cleavage is reported as 0.12.
With G9U G53A U72A the self-cleavage was 0.13.
G9A C23A G42C U49C U74C U80A gave a self-cleavage of 0.05.
With G9U A15U U26C A65G U80C the self-cleavage was 0.04.
G9A A56G U66C U76C showed a self-cleavage of 0.28.
Variant G9C U26C A35C U76A has a self-cleavage of 0.18.
With G9A U51A U58G C71A A75G the self-cleavage was 0.04.
G9U A18G U41C A57G U67C U80A gave a self-cleavage of 0.04.
With G9C U54A A64G U72A the self-cleavage was 0.14.
Work on G9A U26A G63U yielded a self-cleavage of 0.32.
In the case of G9U C11U U66C U74C U78C, the self-cleavage is reported as 0.06.
For G9C C11U U60C A65G A77U, the self-cleavage was 0.15.
G9A C11G G19C U31A A35G A64G A65G showed a self-cleavage of 0.16.
Work on G9A U25C U51A C71U U72C yielded a self-cleavage of 0.22.
G9A U49C U54G U67C U69C gave a self-cleavage of 0.08.
In the case of G9U A45U U78C, the self-cleavage is reported as 0.13.
With G9A U31C A64C the self-cleavage was 0.05.
For G9U C38U U54G U78C, the self-cleavage was 0.21.
Work on G9C C11G A45U U72G A77C yielded a self-cleavage of 0.03.
G9U U25C U43C A45G U67C gave a self-cleavage of 0.05.
For G10A A15G C29U U69A, the self-cleavage was 0.07.
For G9A U25G A35G U41C U58C U67A U72C, the self-cleavage was 0.05.
With G9C G30A U80G the self-cleavage was 0.33.
Variant G9A U58A A64U C68U has a self-cleavage of 0.05.
Variant G9A U26G A65G has a self-cleavage of 0.06.
With G9A A57G U60A the self-cleavage was 0.11.
In the case of G9A U43G A45U U72C, the self-cleavage is reported as 0.07.
With G9U G24A U25C U31A A64G U72C the self-cleavage was 0.03.
In the case of G9U A13U A57G, the self-cleavage is reported as 0.21.
With G9U U54C C62U U72A the self-cleavage was 0.04.
Work on G9A U58C U67C yielded a self-cleavage of 0.12.
G9C U31C C79U gave a self-cleavage of 0.31.
Work on G9U C11U G42U A56U U60C A65G A77U yielded a self-cleavage of 0.03.
In the case of G9A U49C U78C, the self-cleavage is reported as 0.27.
With G9U A13U A56G A57G U66C the self-cleavage was 0.08.
In the case of G9A U25C A45U G53A A56G, the self-cleavage is reported as 0.08.
In the case of G9A C12U A20C G52A U69C U80C, the self-cleavage is reported as 0.04.
For G9U C23U G70U, the self-cleavage was 0.03.
G9A C14G A21U C23A A47U U67A gave a self-cleavage of 0.03.
Variant G9A U26A G46A A77G has a self-cleavage of 0.04.
Work on G9A U31C U41A U54C yielded a self-cleavage of 0.13.
Variant G9U A15G U26C U72C A77G U78C has a self-cleavage of 0.15.
Work on G10A A18G U48C C68U yielded a self-cleavage of 0.16.
G9A C12U C23U U25C A28G U74C gave a self-cleavage of 0.06.
For G9U U43C A57G, the self-cleavage was 0.16.
With G10A A15G U43C A56G G63U U78C the self-cleavage was 0.05.
Work on G9A U51C A75G yielded a self-cleavage of 0.14.
For G9A U43A A77C, the self-cleavage was 0.38.
With G9A G53A A56G the self-cleavage was 0.07.
With G9U U26A U31C U43C U54G A56U A77C the self-cleavage was 0.04.
For G9U A18U A20G U25C, the self-cleavage was 0.05.
Work on G10A A15G U49C U54A A75G yielded a self-cleavage of 0.05.
In the case of G9A C40U A77C, the self-cleavage is reported as 0.07.
G9A A56U U69C gave a self-cleavage of 0.06.
With G9A U49C G53C U80A the self-cleavage was 0.05.
For G9A U25C U48C C50A G53A A56G U69C, the self-cleavage was 0.09.
G9A U26C A35U gave a self-cleavage of 0.19.
Work on G10A A13G G16A U25C U26A yielded a self-cleavage of 0.05.
With G9A G33C U74C the self-cleavage was 0.05.
Variant G9U A18G U41A A45G U54C has a self-cleavage of 0.07.
Variant G10A A18U U31A A56G A65G has a self-cleavage of 0.04.
G9A U43A G52C A57G showed a self-cleavage of 0.22.
For G9U U43A U60A U69A, the self-cleavage was 0.05.
With G9C C14U U43C U48C U49A U54G the self-cleavage was 0.04.
G9A C37U U66C U76C gave a self-cleavage of 0.04.
G9C U31C U49A A56G U72C gave a self-cleavage of 0.05.
With G9U U69C G73U U74A U78C the self-cleavage was 0.06.
G9U U25A U60C G73A showed a self-cleavage of 0.31.
G9A U25C A35C A65U gave a self-cleavage of 0.1.
Work on G9U A13G A64U yielded a self-cleavage of 0.18.
G9U U31C U80C gave a self-cleavage of 0.2.
With G9C U25C A64G U66C the self-cleavage was 0.21.
Variant G9U U26C U69A has a self-cleavage of 0.17.
G10A A15G A20U U25C A47G U51A A77U gave a self-cleavage of 0.07.
G9C A28U U31A G33A U54C showed a self-cleavage of 0.08.
In the case of G9A U43C U58C, the self-cleavage is reported as 0.07.
With G9U A13G A28U A64G the self-cleavage was 0.23.
G9C C59G G73A showed a self-cleavage of 0.29.
For G9U A21U U31A U51G G52A U72A A77C, the self-cleavage was 0.03.
In the case of G9C U31A U80A, the self-cleavage is reported as 0.26.
With G9C A56G U67C the self-cleavage was 0.12.
With G9U U67C U72A the self-cleavage was 0.11.
G9A U25A U69G U78C gave a self-cleavage of 0.25.
For G9A G10A A28G A35G A45U U54A U69C, the self-cleavage was 0.05.
With G9A C11U A20G A28G A64G the self-cleavage was 0.03.
G9U U41G U60A A65G gave a self-cleavage of 0.04.
With G9U A15U G19U U25C U41C G53A A56C the self-cleavage was 0.08.
With G9A U26C A28G U60A the self-cleavage was 0.17.
In the case of G9A C12U U31A U41C U54C U58A, the self-cleavage is reported as 0.07.
G9U U25A U26C gave a self-cleavage of 0.32.
G10A A13G U49C showed a self-cleavage of 0.29.
For G9U A13C U31A A45G A56G U80G, the self-cleavage was 0.04.
Variant G10A A18U U49C G55U has a self-cleavage of 0.14.
Work on G9C A13G A15G A18U A56C G63U yielded a self-cleavage of 0.07.
G9A U25C A35U A65G showed a self-cleavage of 0.05.
G9U A15G A21G A28G U80C showed a self-cleavage of 0.42.
G9A U25C A28C A35U U67C U74A U80C showed a self-cleavage of 0.04.
In the case of G9C G24A U26C C38U U54C, the self-cleavage is reported as 0.04.
G9A C39U U78C gave a self-cleavage of 0.07.
For G9U U51G A57U U72C U74C, the self-cleavage was 0.06.
For G9A U58C U60C U66C U67A, the self-cleavage was 0.11.
With G9U A15U C44U U66C U72A A77G the self-cleavage was 0.07.
Variant G9A G33U A45G U67A U72A A77G has a self-cleavage of 0.06.
Variant G9U A18U A45G U60C G73A has a self-cleavage of 0.06.
With G9U A20G U26A G33U the self-cleavage was 0.2.
In the case of G9A C62U U72A U74A A75C, the self-cleavage is reported as 0.05.
In the case of G9C A28G A57C U67C, the self-cleavage is reported as 0.04.
For G9A A65G C71U U72C, the self-cleavage was 0.12.
For G10A A13U A35G U80A, the self-cleavage was 0.82.
For G9C U49C U60C A64U U72A, the self-cleavage was 0.05.
Variant G9C A21G A47U G53C U74C U80C has a self-cleavage of 0.07.
G9C A47U U72C gave a self-cleavage of 0.33.
Work on G10A A15G A18U A20G C71U yielded a self-cleavage of 0.04.
For G9C U48A U76C, the self-cleavage was 0.09.
In the case of G9A A65G U78C, the self-cleavage is reported as 0.15.
With G9U A20G C34U C37U C62U the self-cleavage was 0.03.
In the case of G9A C40U U54G, the self-cleavage is reported as 0.07.
With G10A A18G U26C A28U C32U U41G the self-cleavage was 0.04.
In the case of G9A U26C U51G, the self-cleavage is reported as 0.07.
Variant G9U U72C U80A has a self-cleavage of 0.07.
With G10A A18G U25A the self-cleavage was 0.08.
